Test results taken from the supplement of paper PMC3334620.
The full ranking holds about 33,000 sequences; the median of “E-score (-0.5 to 0.5)” is about -0.035, and the highest 2% start at about 0.34. The list shows a part of the results.

target: T1, Mot3 (UniProt P54785); assay: PBM E-score (8-mer binding enrichment) (E-score (-0.5 to 0.5)); higher = stronger / more preferred TF binding; most listed sequences are background and not binding sites; conditions: protein concentration: 200 nM; construct: GST-full length
T1 sequence: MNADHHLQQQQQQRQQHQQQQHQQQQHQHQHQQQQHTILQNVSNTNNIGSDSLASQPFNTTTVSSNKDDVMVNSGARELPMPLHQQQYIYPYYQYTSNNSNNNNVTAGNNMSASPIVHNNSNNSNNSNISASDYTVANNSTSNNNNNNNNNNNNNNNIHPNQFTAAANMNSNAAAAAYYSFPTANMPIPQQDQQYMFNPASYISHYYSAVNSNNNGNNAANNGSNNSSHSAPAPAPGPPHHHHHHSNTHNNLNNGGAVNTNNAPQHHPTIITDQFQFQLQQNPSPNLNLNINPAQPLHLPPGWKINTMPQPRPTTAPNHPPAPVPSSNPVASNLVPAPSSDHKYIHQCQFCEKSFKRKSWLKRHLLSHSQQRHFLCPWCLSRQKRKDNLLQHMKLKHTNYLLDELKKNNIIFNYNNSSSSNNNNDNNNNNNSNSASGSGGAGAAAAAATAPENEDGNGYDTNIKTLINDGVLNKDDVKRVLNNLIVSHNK
Experimental: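 Universal 'all 10-mer' protein binding microarrays (Agilent AMADID 015681) probed with GST-tagged S. cerevisiae TFs (full-length or DBD) made by in vitro transcription/translation (PURExpress), about 100-200 nM. Bound TF was detected with fluorescent anti-GST. Each ungapped 8-mer (which stands for itself and its reverse complement) is scored by the PBM enrichment score (E-score), a modified Wilcoxon-Mann-Whitney statistic from -0.5 to +0.5, computed with the Universal PBM Analysis Suite. Scale: above 0.35 generally sequence-specific binding.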

Sequence	PBM E-score
AGTACGTG	0.0527
ATACAGAG	-0.0429
GCCGCAAC	-0.095
CTTGCAAC	0.162
AAAATCCC	-0.0307
GCTGACAA	0.04
ATAGCTGC	0.066
GCGGGCAA	0.00608
AATTCGCC	-0.0364
CCCAACTA	-0.0155
CCCGAGAG	-0.295
CTACGTGA	0.173
GGTTGGCA	-0.0888
CTAAGTCA	-0.129
CATTCGTC	-0.119
AGCGCTAC	-0.105
CTGCCATA	-0.015
AAAGAGGG	-0.153
AATCTTAG	-0.0748
AGTGTTAT	0.143
ATTTGCGC	-0.0706
GATCCCAC	-0.211
GTAGATGA	0.0841
GGCGAAAC	-0.117
TGGATCCA	0.0475

Sequence	PBM E-score
CCCATCTA	-0.135
ACACCATA	0.0856
ACTACGTA	0.162
ATGATCCA	-0.249
TAACCATA	0.0618
AATCTAAC	0.108
AATATTGT	0.113
GCGTTTGA	-0.101
AGCATATC	-0.101
CAGGTAGG	-0.039
CACTTGGA	-0.0183
ACTAGTAA	0.233
AGAGTCAC	-0.148
ACATTCGG	0.133
GAACAGCC	-0.123
AGGCCCTA	-0.042
AGATACTA	-0.205
CACTACGC	0.0645
ATCCAGGA	-0.00502
GAGCAAAA	-0.0379
CAACTGCG	-0.12
CTCCCTCC	-0.107
AACCATAC	-0.147
TGACTACA	0.335
TCTAGGAA	0.315

Sequence	PBM E-score
GAGAAAGA	-0.107
AGCCATCA	-0.0385
GACTGAAA	-0.0442
AATATTAT	0.0776
CGTTAACC	0.187
CGAAAACC	-0.0691
CATAGGCG	0.0696
TACACCTA	0.15
GTATAGCA	0.0677
CCTTCCAA	0.145
GCTAGAGC	0.011
GAACGCTA	-0.217
GCAGGGAC	-0.14
ACGGGCAT	0.0188
GGGCAAAA	0.0722
CCCTTTTC	-0.088
CTCGGGGC	-0.128
AGAATCCC	-0.066
CTCCATTC	-0.253
CACAGTAC	0.0198
CTACGGTC	-0.0693
AAATCATT	0.0124
ATTGCTCC	-0.0965
CACAACAC	0.302
CAGTCCGG	-0.14

Sequence	PBM E-score
CCTGACCG	-0.159
CAACTCTG	-0.133
AACAGACC	0.155
CTCGGATC	-0.235
CGTTATCC	0.022
AAAGATTT	-0.0251
CATTCGCC	-0.083
AACCCGGA	-0.0971
ATGCCATC	-0.0474
ACCTAGCC	-0.251
AGGCTGTG	0.039
CCGGTGCC	0.055
GCATATAC	-0.0399
GTTCAGTA	0.12
ACGCGGTA	0.104
CGTTATAA	0.15
AAATGGAC	0.235
AGCAGTTC	-0.0376
TCAGGTAA	0.324
AGGCCATC	-0.126
TACGGGGA	-0.244
ATCAGCCA	-0.364
ATCGCCGA	-0.251
AGTCCCCA	-0.348
AAAAGGGT	-0.0622

Sequence	PBM E-score
TCGGATAA	-0.0251
TCTTATAA	-0.0852
CTTCGCGA	-0.183
CGGTCAGA	-0.293
CGCGTAAC	0.225
CAGCGCTC	-0.125
TCACTCCA	-0.108
ATTAAAGC	0.0267
CAGCCTGG	-0.181
ATATCGGA	0.0348
CTCCTACC	-0.0978
TACCCGTA	0.00259
CTAATGTC	0.133
ATATCCGC	-0.0306
AGTTGTTC	0.207
CAAAAAGG	0.0517
AGACTGTG	-0.0723
GTACGGAA	0.0545
AAGCTTGA	-0.196
AAGTCAGA	-0.257
CACGGTCA	0.212
ACCTACTC	0.0618
AGCCGGCC	-0.24
GCCCAAAC	-0.097
AGTATGTC	0.0603

Sequence	PBM E-score
GAAATATC	-0.188
AACTTATG	0.1
CGTAATTC	0.159
CACCCAAC	-0.0999
ATTGCGTC	-0.111
ACTCTACT	-0.0605
ACGACGAA	0.0477
AGAGAAGA	0.0816
CCCCCAGA	-0.307
TTGAAAAA	0.184
AAAGTCTT	-0.00998
ACTTGCAG	-0.11
CTTAACCC	-0.0788
ATAAGCTA	0.00041
CGCCAGTC	-0.146
ATGGCCAG	-0.149
AGCGAAAA	-0.0598
TCAACGAA	0.0622
ACCAGCGG	-0.155
ACCTTGCA	-0.0855
CCGTGATC	-0.32
CTTGTTTA	0.221
ACTTTCCC	0.0581
AACGCGGT	0.201
CAATCTTA	0.0878

Sequence	PBM E-score
GTATGCCA	-0.251
AAAGAGAA	-0.114
ACCAACAA	0.211
CCCTTTCC	0.00701
AGGTAACT	0.297
CCTCAAGA	0.193
TTAGCTAA	-0.0988
ACTACAAA	0.109
ATGTCGAG	0.183
GGTCGAGA	-0.147
ACGATCCG	-0.131
ATTGCGTG	0.24
CGGTCCGC	-0.146
ACCACAAG	-0.0935
AGAGGATC	-0.302
TCCTGAGA	0.0668
CCCAAAAA	0.104
TAATCGTA	0.186
CCGCCTAC	-0.166
ACCTAATG	0.0874
GTCCACAA	0.0584
GCACACAC	0.17
CCAAGAAC	-0.156
AGTTCAAT	-0.0766
AAGTAATA	0.134

Sequence	PBM E-score
CTTGCAGC	-0.0503
AACGTAAG	0.105
CAATACTG	-0.0559
ATCTTTAC	0.233
GATTCTGA	-0.195
AACTGACT	-0.207
CACCTACA	0.227
ATTAGATC	0.096
GCAAGCTA	0.00568
ATCGGATG	-0.132
GCGTACAC	0.186
TGCAGCAA	-0.1
AGTTTCGG	-0.17
GAAACGCC	-0.0316
ATGCAATG	-0.0896
ATCGCTGC	-0.195
GAGGCATC	0.145
CCGGGGGA	-0.233
AGACAGGA	-0.0282
CTTCCTTA	0.146
CCCTGTGC	0.0815
GATGTTGA	0.111
CAAGCTGA	-0.224
CAGTTGCC	0.261
ATTATGGA	-0.0113

Sequence	PBM E-score
AAATGGGT	0.00181
CAAATCTC	-0.0859
CTGATCTC	-0.194
GCACAACC	-0.0592
ACCCTACT	-0.0888
AAGGGGCA	-0.0498
GGGGTTTA	0.00656
TACTCCGA	-0.191
CCACCGCG	-0.11
TACGTCGA	0.0529
ACAAGGCT	0.111
CTAACATC	0.16
CCAGTGAG	-0.284
CCTGTCCA	-0.249
AATCGTCC	0.0205
TAAAGCCA	-0.0175
CCAAGTCC	-0.272
TCATGTCA	0.283
AAGGCGCC	0.304
CTTAAGAA	0.103
GAGCCTGC	0.389
AAACGGAC	-0.243
CATTATAC	0.128
CTCATTCA	-0.0988
ATGAGCCC	-0.225

Sequence	PBM E-score
GCGTTGGA	0.0942
CCAGCCTC	-0.185
ACGTCCTG	-0.036
CAGAATAG	0.148
GCCCGGAA	-0.177
CTGGGATC	-0.191
TGATACCA	-0.119
CTTCGGAC	-0.021
AGACAAGC	-0.087
ATCGCCCA	-0.238
CTGACGTC	-0.154
AAACGCTC	-0.0242
CGTAGCAC	-0.00701
GAGAGATC	-0.139
AATTGGGT	0.145
TCGATGCA	-0.159
AAATCGAC	0.0912
AGTTGGTG	-0.171
CCTCATAA	0.0289
ACATGGCT	0.147
ATGGATTA	-0.0764
ATCATTGC	-0.127
CCACCGGA	-0.257
ACAACCAC	0.00901
GCGGCGAC	-0.282

Sequence	PBM E-score
CCTCGCAC	-0.0626
TCTGACCA	0.0289
ACTCTGGG	0.00618
AGCGCTCG	-0.161
TCCGTAAA	0.101
GTAGAGCA	0.0931
ACACGACA	0.316
AGCCGGCG	-0.301
CTTCTCAC	-0.125
CGACCCAG	-0.157
ACAACGAT	0.155
CAGGCCGA	-0.145
CCCTCGGA	-0.143
CCTGCGGA	0.16
TAGGTACA	0.36
CAACATCA	0.176
ACGTTTAT	0.0624
AGCAGACG	-0.277
GTCTTTGA	-0.083
CCACGATC	0.0336
CGCTGCCA	-0.294
ACCAAAAT	0.0829
CATGCATC	-0.0432
CGATAACG	0.0474
CAGATACA	0.129

Sequence	PBM E-score
AGGCCAGC	-0.0993
GATAACGC	0.159
CTCAAGTA	0.042
ACCCCGGC	-0.193
ACCCCCCC	-0.471
ATGGATAG	-0.112
ATAGACAA	0.0462
AGTTGCGC	-0.0198
GGGGACAA	0.022
CACGAGTA	0.154
AACTACTG	-0.107
GAATACGA	0.136
TCACATGA	0.146
AACAGGGT	-0.0595
CCCCTGCC	-0.119
AGGCGTTC	0.187
ATTCGAGC	-0.0218
GTATGAAA	0.0714
TATAGACA	0.157
GGATTGAA	-0.187
GATGAGGA	-0.0833
ACAGGGTA	0.117
AAGTAACG	0.067
GGGGGGGA	-0.353
AAGTTAGT	0.119

Sequence	PBM E-score
GGGGGTAA	-0.221
AGAGGTTA	0.0342
AATTCGAT	-0.00758
ACGTGGGA	-0.11
GTACTCAA	0.0157
AGGCTATC	0.0128
AATAGGAA	0.415
CCGCTATA	-0.129
TGCCGAAA	-0.01
AATCACCG	-0.0781
ATTGGAGA	-0.179
AATTGGAA	0.0798
CGGTGCGA	-0.22
CGATGCCC	-0.317
CCAGACGG	-0.383
ACAACTCA	0.136
ATAAGATA	0.0848
CAGTGTGC	-0.00973
AAGACCAC	-0.0616
CTCATTGA	-0.177
AACTCGAT	0.0481
CAGAGTGA	-0.0154
ACACTCCG	0.136
AGGATGGC	-0.182
CCAGAGAG	-0.375

Sequence	PBM E-score
CGCTGGCC	-0.282
GTAGCCAA	-0.126
GTAGGCGA	-0.00968
AAACCGTT	0.0697
CGAGAGTA	0.0867
AGCAGCTG	-0.0318
CGACAGTC	-0.303
AGTATAAG	0.116
ATCGCAAG	-0.124
CAGGGGCG	-0.037
ACCCGTAG	-0.323
ACAACCTC	-0.0767
CGCTTATC	-0.104
GCGTGTGA	0.177
TTCATGAA	0.0534
AACGACCT	-0.0704
CTGTGTGA	0.181
CATTGCGG	-0.219
CTTCCCCA	-0.0726
